Source: the supplement of paper PMC11417369
± gives the standard deviation of the averaged measurements. This is one part of the list.

system: PfAP2-EXP AP2 domain (GST-tagged); test: gcPBM binding intensity (ln(normalized median fluorescence intensity)); higher = stronger DNA binding
Procedure, shortened: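 The highest Masliner-normalised natural-log median intensity across replicate spots of either probe orientation is reported as binding intensity. GST-tagged P. falciparum DNA-binding domains expressed in E. coli were applied for 1 h to an Agilent 4 × 180k array of primer-extended double-stranded 36-bp intergenic genomic probes plus negative controls, and bound protein was detected with Alexa488 anti-GST antibody and scanned at 488 nm.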

Sequence	gcPBM binding intensity (ln)
ATATATATATATATATGTACTTATTAAGATTAAAAA [XGTACX_site61]	10.2 ± 0.2
ATATTTTGTATAATCACACACACTATTATTAAATAG [CACACA_site2612]	8.44 ± 0.41
TTACATTTTTTATGTTTTTTTATATTGCAAAAAAAT [CACACA_negctrl_site1050]	8.52 ± 0.33
AAAAAAATATATATTACACACATATATACATATATA [CACACA_site3125]	8.22 ± 0.34
TTAAATATAAAAAGTAGTACATTTATATTTACCATA [XGTACX_site2962]	8.34 ± 0.28
TATAAATATAAATACACACACACATCAATACAGATA [CACACA_site5850]	8.64 ± 0.61
ATTAATAATATTCCTTGTACATGATTTTTCTAAATA [XGTACX_site7099]	8.67 ± 0.41
AAAAAAAAAAAAAAAACACACATACACCCCCACCCA [CACACA_site9117]	10.4 ± 0.3
TCTTTTGAACAAATTTGTACGTATATAAAAATATTT [XGTACX_site6547]	8.69 ± 0.31
AATGAATTAATAGCTACACACGGTAACATAATAACT [CACACA_site851]	8.69 ± 0.37
TATAATAATGCCTTTACATGCAATAATAAAGAAATA [TGCATGCA_site631]	8.7 ± 0.23
TGTGTTAATAGAAAAAGTACATATACATATATATAT [XGTACX_site4951]	9.65 ± 0.18
TGCACAGACGGACACACACACAACTAAAAAATAATG [CACACA_site5424]	8.77 ± 0.45
TACATAAAAATATCACGTACATATAATCATATACTA [XGTACX_site3505]	8.31 ± 0.4
ATATTTCATCTAGCTACACACATATAACAAATTACT [CACACA_site7843]	8.8 ± 0.48
TTCTTTTTCCAATTTGCACACCACAAAATTATATAT [CACACA_site2909]	9.38 ± 0.39
ACCTTTGATATATACACACACATAAAAAAAATATAT [CACACA_site6952]	9.22 ± 0.63
CTTGTATTTAAACACACACACACTTTCTTTTTTTAA [CACACA_site5133]	8.64 ± 0.49
AACGTTCATATTTCCACACACAAAAAATAAATATAA [CACACA_site3344]	8.65 ± 0.57
AATATTATAATATAAACACACAAAATTCAATTATAT [CACACA_site3789]	8.55 ± 0.44
TTAATATTAATATATTGTACATATATGCACATATTT [XGTACX_site6569]	8.46 ± 0.28
AAAAATAAAGGGCGAAAAAAAAAAAAAAAAAAAAAA [GTGCAC_negctrl_site671]	8.13 ± 0.65

Sequence	gcPBM binding intensity (ln)
ATATTTTATTATTGTTGTACTTTTTTTTGATTGTTT [XGTACX_site4090]	8.81 ± 0.42
TTGACACGTATATGCACACACCCGTAAGTGTCCATT [CACACA_site2764]	8.91 ± 0.45
TCACACATATATTCATGTACATATTAATATTTCCAT [XGTACX_site5387]	8.85 ± 0.44
AGTTATAAACATATGTGTACTTATAAAAACATATAG [XGTACX_site3268]	8.58 ± 0.27
TTTAATATTTTTCAATGTAGAAAGTTTGTCTGTTAT [CACACA_negctrl_site973]	8.14 ± 0.49
TTTTTTATGAACACGTCACACATCATTAAAATGTTT [CACACA_site5934]	8.35 ± 0.26
TTTTGTAAAAAAAAAAAAAAAGGAAAATTAAAATAA [CACACA_negctrl_site803]	8.36 ± 0.43
TTGATGATATAAAAAAGTACTTATATTATATTATAT [XGTACX_site6492]	8.35 ± 0.24
TTTCCTATTTAATATAGTACATAAGAAATAATTTTA [XGTACX_site5952]	8.12 ± 0.15
TTGTTTTTAGTTTATACACACCATATTAATATAATG [CACACA_site7452]	8.74 ± 0.39
ATTTGGCATGGACACACACACACACCGACAGACATA [CACACA_site4491]	8.71 ± 0.38
TTATATTATGGACACACACACAAAAAAAAAAAAAAA [CACACA_site7744]	8.42 ± 0.37
ATATATATATAAAGTTGTACATTTTTTATTTTTTCA [XGTACX_site7847]	9.79 ± 0.13
AAATTAATTAAATATACACACATATATAAATATATA [CACACA_site391]	8.37 ± 0.17
CAATTTTAAGTAATCAATTTTTTTAAAAAACACAAA [CACACA_negctrl_site961]	8.23 ± 0.44
AAAATATATTATATATGTACATATTACGTTTTAATT [XGTACX_site2518]	8.62 ± 0.34
TTAAAACCAAAACACAGTACATATATATATATATAT [XGTACX_site5668]	10.3 ± 0.23
TTTGTTAATTATAAATGTACATATTATATATATATA [XGTACX_site8870]	9.71 ± 0.12
GCATAATATACTCTTACACACCATTTCTATATACAT [CACACA_site6799]	9.14 ± 0.45
TATATATATATGTATACACACATATGTATGTTATGT [CACACA_site4053]	9.65 ± 0.28
TTTTTCATTTCTGCATTTATTTATAAATAAATATTT [CACACA_negctrl_site368]	8.96 ± 0.37
ATATATATTATATAAGTGCATAATATTCTTTCTTTT	8.54 ± 0.071
